Data as given in patent US20170362327A1.
Substitutions are numbered along the chain they refer to. Names and notes keep the numbering of the source.

B1: GBR VH5(V37A)VL1 (antibody, human IgG1, kappa)
heavy: EVKLLESGGGLVQPGGSLRLSCAASGFTFSTYTMSWARQTPGKRLEWVAYISKGGGSTYYPDTVKGRFTISRDNSKNTLYLQMNSLRAEDTAVYYCARGAMYGNDFFYPMDYWGQGTTVTVSS[letters of human IgG1 constant region not shown]
light: EIVLTQSPATLSLSPGERATLSCSASSSVSYMHWYQQKPGQAPRLLIYTTSNLASGIPARFSGSGSGTDFTLTISSLEPEDFAVYYCHQWSSYPWTFGQGTKLEIKRTVAAPSVFIFPPSDEQLKSGTASVVCLLNNFYPREAKVQWKVDNALQSGNSQESVTEQDSKDSTYSLSSTLTLSKADYEKHKVYACEVTHQGLSSPVTKSFNRGEC
B2: GBR VH5(V37A)VL3 (antibody, human IgG1, kappa)
heavy: B1 heavy
light: B1 light with E1Q, A42S, A59S, D69F, F70Y, Q99G
B3: GBR VH5(K3Q,V37A)VL1 IGHG4 S228P (antibody, human IgG4 S228P, kappa)
heavy: EVQLLESGGGLVQPGGSLRLSCAASGFTFSTYTMSWARQTPGKRLEWVAYISKGGGSTYYPDTVKGRFTISRDNSKNTLYLQMNSLRAEDTAVYYCARGAMYGNDFFYPMDYWGQGTTVTVSSASTKGPSVFPLAPCSRSTSESTAALGCLVKDYFPEPVTVSWNSGALTSGVHTFPAVLQSSGLYSLSSVVTVPSSSLGTKTYTCNVDHKPSNTKVDKRV[letters of human IgG4 Fc with S228P (EU numbers) not shown]
light: B1 light
B4: GBR VH3(V37A)VL1 (antibody, human IgG1, kappa)
heavy: B1 heavy with K3Q, R98K
light: B1 light
B5: GBR VH5(K3Q,V37A)VL1 (antibody, human IgG1, kappa)
heavy: B1 heavy with K3Q
light: B1 light
B6: BXhVH5VL1 (antibody, human IgG1, kappa)
heavy: B1 heavy with A37V
light: B1 light
B7: GBR VH3(V37A)VL3 (antibody, human IgG1, kappa)
heavy: B1 heavy with K3Q, R98K
light: B1 light with E1Q, A42S, A59S, D69F, F70Y, Q99G

target: human TrkA on the surface of TF-1 cells (human), P04629; test: cell-based or functional assay
Sequence (P04629 33-796): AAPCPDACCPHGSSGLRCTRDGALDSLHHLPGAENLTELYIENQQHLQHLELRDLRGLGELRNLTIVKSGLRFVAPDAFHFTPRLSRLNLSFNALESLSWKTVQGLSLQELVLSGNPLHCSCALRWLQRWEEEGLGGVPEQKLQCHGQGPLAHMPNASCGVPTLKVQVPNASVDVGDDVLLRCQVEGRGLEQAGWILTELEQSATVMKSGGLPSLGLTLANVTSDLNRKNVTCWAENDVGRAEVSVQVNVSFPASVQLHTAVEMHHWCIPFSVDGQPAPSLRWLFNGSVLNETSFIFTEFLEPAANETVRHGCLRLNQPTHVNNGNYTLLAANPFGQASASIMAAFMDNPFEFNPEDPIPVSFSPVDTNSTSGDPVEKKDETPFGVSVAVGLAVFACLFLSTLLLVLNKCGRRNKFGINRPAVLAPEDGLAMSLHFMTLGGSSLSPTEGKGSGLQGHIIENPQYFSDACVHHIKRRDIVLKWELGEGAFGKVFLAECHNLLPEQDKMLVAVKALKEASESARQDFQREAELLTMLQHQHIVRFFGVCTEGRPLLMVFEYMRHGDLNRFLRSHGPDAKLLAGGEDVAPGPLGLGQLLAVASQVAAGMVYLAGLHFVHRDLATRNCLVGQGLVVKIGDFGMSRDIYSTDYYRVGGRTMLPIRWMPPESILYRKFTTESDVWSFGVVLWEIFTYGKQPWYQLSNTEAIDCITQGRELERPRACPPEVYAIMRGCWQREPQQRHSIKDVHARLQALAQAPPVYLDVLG

TF-1 cell proliferation assay IC50 (beta-NGF induced proliferation) | TF-1 cell proliferation assay, potency against BXhVH5VL1 | TF-1 cell proliferation assay, potency against MNAC13 | Binder
0.075 µg/mL | 10 fold | 3 fold | B1
0.22 µg/mL | – | – | B2
0.15 µg/mL | – | – | B3
0.15 µg/mL | – | – | B4
0.15 µg/mL | – | – | B5
0.73 µg/mL | – | – | B6
0.29 µg/mL | – | – | B7
